Test results taken from patent US10299477B2 (priority 2015, dated 2019).

What was measured:
Type in all cases: in vivo
Botrytis cinerea = test: Test Example B: Gray mold on tomato; settings: for Test B control value (gray mold on tomato) / Test B (control value class): 250 ppm spray; for Test B control value (gray mold on tomato): preventive, control value class; for Test B (control value class): gray mold on tomato, Botrytis cinerea; for Test B control value: Gray mold on tomato; for Test B (control value class, gray mold on tomato): in vivo
Description: [Test Example B] Gray Mold on Tomato
Seeds of a test plant (tomato variety: Oogata Fukuju) were planted followed by cultivating until three to five first leaves (true leaves) appeared.

Puccinia recondita = test: Test Example E: Brown rust on wheat; settings: for Test E control value (brown rust on wheat) / Test E (control value class): 250 ppm spray; for Test E control value (brown rust on wheat): preventive, control value class; for Test E (control value class): brown rust on wheat, Puccinia recondita; for Test E control value: Brown rust on wheat; for Test E (control value class, brown rust on wheat): in vivo
Description: [Test Example E] Brown Rust on Wheat

Alternaia brassicicola = test: Test Example C: Alternaria sooty spot on cabbage; settings: for Test C control value (Alternaria sooty spot on cabbage) / Test C (control value class): 250 ppm spray; for Test C control value (Alternaria sooty spot on cabbage): preventive, control value class; for Test C (control value class) / Test C control value: Alternaria sooty spot on cabbage; for Test C (control value class, Alternaria sooty spot on cabbage): in vivo
Description: [Test Example C] Alternaria Sooty Spot on Cabbage
Seeds of a test plant (cabbage variety: Shikidori) were planted followed by cultivating until the cotyledons extended.

[1] = tested on: Blumeria graminis f sp. hordei; test: Test Example D: Powdery mildew on barley; settings: for Test D control value (powdery mildew on barley) / Test D (control value class): 250 ppm spray; for Test D control value (powdery mildew on barley): preventive, control value class; for Test D (control value class): powdery mildew on barley; for Test D control value: Powdery mildew on barley; for Test D (control value class, powdery mildew on barley): in vivo
Description: [Test Example D] Powdery Mildew on Barley
After the sprayed dilutions were dried, conidia of Blumeria graminis f sp. hordei were inoculated to the plants by shaking off.

Plasmopara viticola = test: Test Example G: Downy mildew on vine; settings: for Test G control value (downy mildew on vine): 250 ppm spray (2.5 ml/pot), preventive, control value class; for Test G control value (downy mildew on vine) / Test G (control value class) / Test G control value: 7-10 days after inoculation; for Test G (control value class): downy mildew on vine, Plasmopara viticola, 250 ppm spray; for Test G control value: Downy mildew on vine, 250 ppm sprayed before inoculation; for Test G (control value class, downy mildew on vine): 250 ppm, sprayed 2.5 ml/pot before inoculation, evaluated 7-10 days after inoculation
Description: [Test Example G] Downy Mildew on Vine
Seeds of a test plant (grape variety: Neomuscat) were planted followed by cultivating until three to four first leaves appeared. […] After the sprayed dilutions were dried, a zoosporangia suspension (1-2×10^4 zoosporangia/ml) of Plasmopara viticola was inoculated to the plants by spraying.

Cn1c(-c2c(F)cc(F)cc2F)c(-c2cc(F)ccc2Cl)ccc1=O [Compound 339]
Test B control value (gray mold on tomato) (Botrytis cinerea): H (H shows more than 50% of control values) | Test E control value (brown rust on wheat) (Puccinia recondita): H (H shows more than 50% of control values) | Test C control value (Alternaria sooty spot on cabbage) (Alternaia brassicicola): H (H shows more than 50% of control values) | Test D control value (powdery mildew on barley) [1]: H (H shows more than 50% of control values) | Test G control value (downy mildew on vine) (Plasmopara viticola): H (H shows more than 50% of control values)

CN1C(=O)CCC(c2cccc(Cl)c2)=C1c1c(F)cccc1F [Compound 191]
Test B control value (gray mold on tomato) (Botrytis cinerea): L (L shows 50% or less of control values) | Test E control value (brown rust on wheat) (Puccinia recondita): H (H shows more than 50% of control values) | Test C control value (Alternaria sooty spot on cabbage) (Alternaia brassicicola): H (H shows more than 50% of control values) | Test D control value (powdery mildew on barley) [1]: H (H shows more than 50% of control values) | Test G control value (downy mildew on vine) (Plasmopara viticola): L (L shows 50% or less of control values)

CN1C(=O)CCC(c2cc(F)ccc2F)=C1c1c(F)cccc1F [Compound 480]
Test B (control value class) (Botrytis cinerea): H (H shows more than 50% of control values) | Test E (control value class) (Puccinia recondita): L (L shows 50% or less of control values) | Test C (control value class) (Alternaia brassicicola): L (L shows 50% or less of control values) | Test D (control value class) [1]: L (L shows 50% or less of control values) | Test G (control value class) (Plasmopara viticola): L (L shows 50% or less of control values)

CCn1c(-c2c(F)cccc2F)c(-c2cc(OCOC)ccc2Cl)cc(Cl)c1=O [Compound 127, 3-chloro-5-(2-chloro-5-(methoxymethoxy)phenyl)-6-(2,6-difluorophenyl)-1-ethylpyridine-2(1H)-one]
Test B control value (Botrytis cinerea): H (H shows more than 50% of control values) | Test E control value (Puccinia recondita): H (H shows more than 50% of control values) | Test C control value (Alternaia brassicicola): H (H shows more than 50% of control values) | Test D control value [1]: H (H shows more than 50% of control values) | Test G control value (Plasmopara viticola): H (H shows more than 50% of control values)

CCn1c(-c2c(F)cc(F)cc2F)c(-c2cc(F)cc(F)c2Cl)cc(C)c1=O [Compound 689]
Test B (control value class, gray mold on tomato) (Botrytis cinerea): H (H shows more than 50% of control values) | Test E (control value class, brown rust on wheat) (Puccinia recondita): H (H shows more than 50% of control values) | Test C (control value class, Alternaria sooty spot on cabbage) (Alternaia brassicicola): H (H shows more than 50% of control values) | Test D (control value class, powdery mildew on barley) [1]: H (H shows more than 50% of control values) | Test G (control value class, downy mildew on vine) (Plasmopara viticola): H (H shows more than 50% of control values)

CCOc1cc(F)c(-c2c(-c3ccccc3Cl)ccc(=O)n2C)c(F)c1 [Compound 730]
Test B (control value class, gray mold on tomato) (Botrytis cinerea): H (H shows more than 50% of control values) | Test E (control value class, brown rust on wheat) (Puccinia recondita): H (H shows more than 50% of control values) | Test C (control value class, Alternaria sooty spot on cabbage) (Alternaia brassicicola): H (H shows more than 50% of control values) | Test D (control value class, powdery mildew on barley) [1]: H (H shows more than 50% of control values) | Test G (control value class, downy mildew on vine) (Plasmopara viticola): L (L shows 50% or less of control values)

Cn1c(-c2c(F)cccc2F)c(-c2cc(F)cc(F)c2Cl)cc(Cl)c1=O [Compound 554]
Test B (control value class) (Botrytis cinerea): H (H shows more than 50% of control values) | Test E (control value class) (Puccinia recondita): H (H shows more than 50% of control values) | Test C (control value class) (Alternaia brassicicola): H (H shows more than 50% of control values) | Test D (control value class) [1]: H (H shows more than 50% of control values) | Test G (control value class) (Plasmopara viticola): L (L shows 50% or less of control values)

CCn1c(-c2c(F)cccc2F)c(-c2cc(OCCOC)ccc2Cl)cc(Cl)c1=O [Compound 195]
Test B control value (gray mold on tomato) (Botrytis cinerea): H (H shows more than 50% of control values) | Test E control value (brown rust on wheat) (Puccinia recondita): H (H shows more than 50% of control values) | Test C control value (Alternaria sooty spot on cabbage) (Alternaia brassicicola): H (H shows more than 50% of control values) | Test D control value (powdery mildew on barley) [1]: H (H shows more than 50% of control values) | Test G control value (downy mildew on vine) (Plasmopara viticola): H (H shows more than 50% of control values)

CCn1c(-c2c(F)cccc2F)c(-c2cccc(Cl)c2)ccc1=O [Compound 171]
Test B control value (Botrytis cinerea): H (H shows more than 50% of control values) | Test E control value (Puccinia recondita): H (H shows more than 50% of control values) | Test C control value (Alternaia brassicicola): H (H shows more than 50% of control values) | Test D control value [1]: H (H shows more than 50% of control values) | Test G control value (Plasmopara viticola): H (H shows more than 50% of control values)

CCn1c(-c2c(F)cc(F)cc2F)c(-c2cc(F)cc(F)c2Cl)ccc1=O [Compound 584]
Test B (control value class, gray mold on tomato) (Botrytis cinerea): H (H shows more than 50% of control values) | Test E (control value class, brown rust on wheat) (Puccinia recondita): H (H shows more than 50% of control values) | Test C (control value class, Alternaria sooty spot on cabbage) (Alternaia brassicicola): H (H shows more than 50% of control values) | Test D (control value class, powdery mildew on barley) [1]: H (H shows more than 50% of control values) | Test G (control value class, downy mildew on vine) (Plasmopara viticola): H (H shows more than 50% of control values)

CCn1c(-c2c(F)cc(Cl)cc2F)c(-c2cc(F)ccc2Cl)ccc1=O [Compound 601]
Test B (control value class, gray mold on tomato) (Botrytis cinerea): H (H shows more than 50% of control values) | Test E (control value class, brown rust on wheat) (Puccinia recondita): H (H shows more than 50% of control values) | Test C (control value class, Alternaria sooty spot on cabbage) (Alternaia brassicicola): H (H shows more than 50% of control values) | Test D (control value class, powdery mildew on barley) [1]: H (H shows more than 50% of control values) | Test G (control value class, downy mildew on vine) (Plasmopara viticola): L (L shows 50% or less of control values)

CCn1c(-c2c(F)cccc2F)c(-c2cccc(Cl)c2)cc(Cl)c1=O [Compound 178]
Test B control value (Botrytis cinerea): L (L shows 50% or less of control values) | Test E control value (Puccinia recondita): L (L shows 50% or less of control values) | Test C control value (Alternaia brassicicola): H (H shows more than 50% of control values) | Test D control value [1]: L (L shows 50% or less of control values) | Test G control value (Plasmopara viticola): L (L shows 50% or less of control values)

Cn1c(-c2c(F)cccc2F)c(-c2ccc(Cl)cc2)cc(Cl)c1=O [Compound 285]
Test B control value (gray mold on tomato) (Botrytis cinerea): H (H shows more than 50% of control values) | Test E control value (brown rust on wheat) (Puccinia recondita): H (H shows more than 50% of control values) | Test C control value (Alternaria sooty spot on cabbage) (Alternaia brassicicola): H (H shows more than 50% of control values) | Test D control value (powdery mildew on barley) [1]: H (H shows more than 50% of control values) | Test G control value (downy mildew on vine) (Plasmopara viticola): L (L shows 50% or less of control values)

CCOc1cc(F)c(-c2c(-c3cccc(F)c3C)cc(C)c(=O)n2CC)c(F)c1 [Compound 713]
Test B (control value class, gray mold on tomato) (Botrytis cinerea): H (H shows more than 50% of control values) | Test E (control value class, brown rust on wheat) (Puccinia recondita): H (H shows more than 50% of control values) | Test C (control value class, Alternaria sooty spot on cabbage) (Alternaia brassicicola): H (H shows more than 50% of control values) | Test D (control value class, powdery mildew on barley) [1]: H (H shows more than 50% of control values) | Test G (control value class, downy mildew on vine) (Plasmopara viticola): H (H shows more than 50% of control values)

CCn1c(-c2c(F)cc(F)cc2F)c(-c2ccc(F)cc2Cl)cc(C)c1=O [Compound 594]
Test B (control value class, gray mold on tomato) (Botrytis cinerea): H (H shows more than 50% of control values) | Test E (control value class, brown rust on wheat) (Puccinia recondita): H (H shows more than 50% of control values) | Test C (control value class, Alternaria sooty spot on cabbage) (Alternaia brassicicola): H (H shows more than 50% of control values) | Test D (control value class, powdery mildew on barley) [1]: H (H shows more than 50% of control values) | Test G (control value class, downy mildew on vine) (Plasmopara viticola): H (H shows more than 50% of control values)

CCn1c(-c2c(F)cc(OC)cc2F)c(-c2cccc(F)c2F)cc(Br)c1=O [Compound 589]
Test B (control value class, gray mold on tomato) (Botrytis cinerea): H (H shows more than 50% of control values) | Test E (control value class, brown rust on wheat) (Puccinia recondita): H (H shows more than 50% of control values) | Test C (control value class, Alternaria sooty spot on cabbage) (Alternaia brassicicola): H (H shows more than 50% of control values) | Test D (control value class, powdery mildew on barley) [1]: H (H shows more than 50% of control values) | Test G (control value class, downy mildew on vine) (Plasmopara viticola): L (L shows 50% or less of control values)
